{"source": "paper PMC5469273", "about": "“Discovery of Novel Small-Molecule Inhibitors of LIM Domain Kinase for Inhibiting HIV-1” (Journal of Virology, 2017)", "key": {"[1]": {"test_system": "HIV-1(NL4-3)", "assay_type": "cell-based", "details": "100 μM 1 h, infection 2 h, washed, 5 days, CD3/CD28 activation; p24"}, "[2]": {"test_system": "threonine 508/505 phosphorylation of LIMK1/2", "experiment": "Western blotting for p-LIMK1/2 in CEM-SS T cells", "details": "100 μM, time course"}}, "data": [{"smiles": "COC(=O)c1ccc2[nH]c(C3CCN(c4ncnc5[nH]cc(Cl)c45)CC3)nc2c1", "note": "[Compound R10015, Methyl 2-(1-(5-chloro-7H-pyrrolo[2,3-d]pyrimidin-4-yl)piperidin-4-yl)-1H-benzo[d]imidazole-5-carboxylate]", "values": [{"measurement": "X4 HIV-1 latent infection of resting CD4 T cells", "setting": "[1]", "value": "blocked"}, {"measurement": "threonine 508/505 phosphorylation of LIMK1/2", "setting": "[2]", "value": "did not inhibit"}]}]}
